One may read the stoichiometry N as a count of units in the complex or per binding partner.

This series deals with the molecule itself. In words: SEC-MALS; Superdex 200 10/300 in 25 mM HEPES pH 7.5, 150 mM NaCl, 0.02% sodium azide; AIF 33 µM, CHCHD4 50 µM with 5 mM TCEP, complexes with 120 µM NADH, incubated 10 min at room temperature. In general terms: In gel filtration, larger molecules generally elute earlier.

B1: AIF([…]), wild type (domain or fragment)
chain: not shown
notes: Apoptosis-inducing factor (AIF), human, […], lacking the inner mitochondrial membrane tether; Construct from Brosey et al 2016; also called Apoptosis-inducing factor; AIF + NADH; source: E. coli Rosetta2(DE3), purified (Ni-NTA, PreScission cleavage, subtractive Ni-NTA, Superdex 200)
As to B1, the “stoichiometry N” value turned out to be 2.

Values taken from PMC11832770, “NADH-bound AIF activates the mitochondrial CHCHD4/MIA40 chaperone by a substrate-mimicry mechanism” (The EMBO Journal, 2025).
